About 14,000 (4.5%) of roughly 310,000 compounds showed an effect of 50% or more. The effect is printed as a negative number. Some of the results follow.
What follows are compounds tested against human ether-à-go-go-related gene (hERG) potassium channel (human, UniProt Q12809) (assay: primary screen, population patch clamp on CHO cells stably expressing hERG).
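Note: peak tail current of the secondary pulse compared with the same well before compound.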

human ether-à-go-go-related gene (hERG) potassium channel, sequence (Q12809 whole entry, looked up): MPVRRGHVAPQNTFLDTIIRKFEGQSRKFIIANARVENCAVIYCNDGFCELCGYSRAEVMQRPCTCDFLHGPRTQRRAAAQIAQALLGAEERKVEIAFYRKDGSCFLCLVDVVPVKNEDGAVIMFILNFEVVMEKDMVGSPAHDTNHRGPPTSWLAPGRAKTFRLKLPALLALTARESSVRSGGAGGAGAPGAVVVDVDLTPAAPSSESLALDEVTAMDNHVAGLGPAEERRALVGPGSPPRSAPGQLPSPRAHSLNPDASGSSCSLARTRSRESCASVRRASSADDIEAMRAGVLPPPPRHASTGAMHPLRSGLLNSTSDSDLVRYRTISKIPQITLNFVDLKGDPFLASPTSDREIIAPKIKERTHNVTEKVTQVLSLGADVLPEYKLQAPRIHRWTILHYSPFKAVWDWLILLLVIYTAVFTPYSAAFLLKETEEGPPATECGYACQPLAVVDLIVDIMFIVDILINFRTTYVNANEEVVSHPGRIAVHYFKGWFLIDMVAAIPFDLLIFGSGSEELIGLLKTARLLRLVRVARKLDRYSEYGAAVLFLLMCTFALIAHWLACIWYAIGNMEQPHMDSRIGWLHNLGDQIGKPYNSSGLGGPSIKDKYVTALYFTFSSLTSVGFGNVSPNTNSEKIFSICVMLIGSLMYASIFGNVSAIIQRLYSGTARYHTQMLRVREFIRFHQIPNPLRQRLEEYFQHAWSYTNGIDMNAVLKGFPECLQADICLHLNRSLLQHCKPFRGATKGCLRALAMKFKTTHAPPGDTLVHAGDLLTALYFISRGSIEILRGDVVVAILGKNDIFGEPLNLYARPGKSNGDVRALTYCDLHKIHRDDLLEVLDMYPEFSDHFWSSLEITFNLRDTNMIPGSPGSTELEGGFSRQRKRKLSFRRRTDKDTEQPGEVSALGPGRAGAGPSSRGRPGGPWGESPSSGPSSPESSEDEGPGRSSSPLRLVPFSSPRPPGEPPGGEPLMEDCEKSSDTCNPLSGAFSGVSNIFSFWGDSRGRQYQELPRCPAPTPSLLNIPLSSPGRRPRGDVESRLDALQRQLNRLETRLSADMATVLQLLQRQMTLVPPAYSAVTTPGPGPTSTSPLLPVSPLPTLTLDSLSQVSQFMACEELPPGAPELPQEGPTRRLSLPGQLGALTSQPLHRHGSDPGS

SMILES	hERG current change (%, negative = inhibition) at 10uM
O=C1C=C(NCc2ccc(Cl)c(Cl)c2)C2(CCCCC2)O1	16.4%
Cc1ccc(NC(=O)CSc2nc(CSc3ccc(C)cc3)cc(=O)[nH]2)cc1	9.15%
O=C(Nc1ccccc1C(=O)N1CCCC1)c1cccc(S(=O)(=O)N2CCCCCC2)c1	-39.3%
Cc1ccc(Nc2nc(NCC3CCCO3)nc(N)c2[N+](=O)[O-])cc1 (stereo not drawn)	19.6%
Cc1cc2cc(CN3C(=O)c4ccccc4C3=O)ccc2[nH]1	11.2%
Cc1ccc(/C=C/C(=O)N2CCC(Cc3ccccc3)CC2)cc1	17.9%
Cc1cc(C(=O)N2CC=C(c3ccccc3)CC2)c2ccccc2n1	-52.9%
CCn1ccc(C(=O)Nc2ccccc2SC)n1	-37.9%
COc1ccc(NC2CS(=O)(=O)CC2OC(=O)c2ccc(F)cc2)cc1 (stereo not drawn)	3.68%
O=C(Nc1ccccc1)OCN1C(=O)c2ccccc2C1=O	-15.7%
CC(=O)N1N=C(c2ccc(C(C)(C)C)cc2)OC1(C)C	1.81%
C=CCOC(=O)C1=C(C)NC(=O)NC1/C=C/c1ccccc1OC (stereo not drawn)	15.2%
Cc1ccc(Cc2c[nH]c(=S)s2)cc1	16.6%
CCCc1n[nH]c(=O)c2c1nnn2Cc1ccccc1	4.86%
O=C(c1ccc(Cl)cc1Cl)N1CCc2ccccc21	-1.6%
CC(C)n1cnc2c(NCc3ccccc3)nc(NCc3ccccc3)nc21	0.281%
Cc1cccc(NC(=O)COc2ccc(Br)cc2/C=N/O)c1	8.31%
CCOC(=O)c1[nH]c2ccc(OC)cc2c1NC(=O)N1CCOCC1	12.9%
COc1ccc(NC(=S)Nc2ccc(F)cc2)cc1	16.2%
CSCC[C@H](NC(=O)[C@H](Cc1ccccc1)n1c(=O)[nH]c2ccccc2c1=O)C(=O)N1CCC[C@H]1C(=O)O	-1.94%
O=C(NC(=S)N1CCN(c2ccc(F)cc2)CC1)C12CC3CC(CC(C3)C1)C2	1.26%
O=C(CNC(=O)c1ccccc1F)N/N=C/c1ccc2c(c1)OCO2	15.6%

SMILES	hERG current change (%, negative = inhibition) at 10uM
CCOC(=O)c1c(C)nc2c(c1-c1cc(OC)ccc1OC)C(=O)CC(C)(C)C2	8.68%
CCOc1cc(/C=N/Nc2cc(C)nc3ccc(C)cc23)ccc1O	11.1%
Clc1ccc(-c2nnc(CSc3nnc(-c4cccs4)n3Cc3ccccc3)o2)cc1	-47.4%
COc1ccc(NC(=O)CN(C)C(=O)c2ccc(-c3ccccc3Cl)o2)cc1	-5.15%
CC(C)c1ccc(/C=N/NC(=O)CC(=O)NCc2ccccc2)cc1	23.2%
Cl.NCC(O)CN1CCN(Cc2ccccc2)CC1 (stereo not drawn)	11%
Cc1ccc(N2CCN(C(=O)NC3CCCCC3)CC2)c(C)c1	12%
O=C(CN1CCN(S(=O)(=O)c2ccccc2)CC1)NC(=O)NCc1ccccc1	12.7%
CC1(C)CC(Cc2nc(=S)[nH][nH]2)C(=O)O1 (stereo not drawn)	20%
COCCn1c(=O)[nH]c(=O)c2c1nc(-c1cc(Br)c3c(c1)OCO3)n2Cc1ccccc1	0.333%
O=C(Nc1ccc(-c2nc3ccc(NC(=O)c4cccs4)cc3[nH]2)cc1)c1cccs1	18.1%
O=C(CCc1nnc(CCc2ccccc2)o1)N1CCCC1c1nccs1 (stereo not drawn)	5.12%
Cc1ccc(Cl)cc1N1CCN(S(=O)(=O)c2c(C)nc3scc(C)n3c2=O)CC1	17.8%
Cc1ccc2ncnc(NCCC(=O)O)c2c1.Cl	2.72%
c1ccc(Cn2nnnc2CN2CCN(Cc3ccc4c(c3)OCO4)CC2)cc1	-61.1%
CC(C)(C)N1C(=O)[C@H]2[C@@H](c3ccc(Br)cc3)N3C(=O)N(c4cccc(Cl)c4)C(=O)[C@@]3(Cc3ccccc3)[C@H]2C1=O	23.4%
CCOC(=O)C1=C(C)NC(=S)NC1c1ccc(-c2cccc(Cl)c2C)o1 (stereo not drawn)	14.4%
COc1ccc(CNC(=O)CCS(=O)(=O)c2ccc3c(c2)CC(C)N3C(=O)C2CC2)cc1 (stereo not drawn)	11.4%
COc1ccc(/C=C/C(=O)NNC(=O)c2cc(C)oc2C)cc1	5.04%
O=C(NC1CCS(=O)(=O)C1)c1cccc(S(=O)(=O)N2CCCCC2)c1 (stereo not drawn)	4.21%
Cc1nc(CSc2ccc(Cl)cc2)cc(N2CCOCC2)n1	-16.8%
Cc1ccc(C(=O)Nc2ccc(Nc3ccccc3)cc2)c(Cl)c1	20.7%

SMILES	hERG current change (%, negative = inhibition) at 10uM
COc1ccc(Cl)cc1NC(=S)N(Cc1cccnc1)Cc1ccco1	-73.8%
NC(=O)c1cc2cc(Br)ccc2o/c1=N/NC(=O)c1cccc(F)c1	5.52%
O=C(CCN=C1NS(=O)(=O)c2ccccc21)OCc1ccccc1	4.19%
Cc1cc(Cl)ccc1Oc1ccccc1C(=O)CC#N	-27.4%
COc1cccc(NC(=O)CCN2C(=O)c3ccccc3Sc3ncccc32)c1	12.7%
O=C(Nc1nnc(-c2ccncc2)o1)c1ccccc1F	31.6%
Cc1cc(-c2nnc(SCC(=O)c3ccc4c(c3)OCCO4)o2)no1	-0.243%
Cc1cccc(N2CC(C(=O)Nc3ccc4c(c3)OCO4)CC2=O)c1C (stereo not drawn)	-22.2%
C=CCN1C(=O)/C(=C2/Sc3ccccc3N2CC)SC1=S	15.5%
COc1cc(CNCc2ccc(OC)c3ccccc23)cc(OC)c1OC.O=C(O)C(=O)O	-20%
Cc1nn(-c2ccccc2)c(C)c1NC(=O)c1ccc(S(=O)(=O)N2CCCC2)cc1	-10.5%
CC(C)c1ccc(NC(=S)Nc2cccc3ccccc23)cc1	12.3%
COc1ccccc1N1C(=O)C2CCC(c3ccccc3)CC2C1=O (stereo not drawn)	-3.05%
O=C(CCSc1ccc(Cl)cc1)N1CCN(S(=O)(=O)c2ccccc2)CC1	-25.8%
COc1cc(/C=C/C(=O)O)cc(S(=O)(=O)Nc2ccccc2Oc2ccccc2)c1OC	-6.27%
Cn1c(N)c(C(=O)c2ccc(Oc3ccccc3)cc2)c(=O)n(C)c1=O	-7.5%
Cc1cccnc1NC(=O)c1ccc(S(=O)(=O)N2CCC(C)CC2)cc1	-12.3%
[Br-].c1ccc(-c2c[n+]3c(n2-c2ccccc2)SCC3)cc1	-28.4%
Cc1nn(CCO)c2nc(-c3cccs3)cc(C(F)(F)F)c12	2.32%
CN(Cc1cnn(C)c1)C(=O)C1CCC(=O)N(Cc2cccc(C(F)(F)F)c2)C1 (stereo not drawn)	6.88%
O=C(CN(C(=O)c1nsc(Cl)c1Cl)c1ccc(F)cc1)NC1CCCC1	-3.02%
O=C(COc1ccccc1/C=C1\SC(=O)NC1=O)Nc1ccccc1	14.4%

SMILES	hERG current change (%, negative = inhibition) at 10uM
Oc1[nH]c2ccccc2c1N=Nc1c(F)c(F)c(C(F)(F)F)c(F)c1F	4.55%
Cc1ccc(-c2nnc(N3CCCCC3)c3ccccc23)cc1S(=O)(=O)N1CCN(C)CC1	-58.7%
CC(C)(C)c1nn2cnnc2n(/N=C/c2cccc3ccccc23)c1=O	-9.63%
CC(C)CN(C(=O)COC(=O)c1ccc(Cl)nc1)c1c(N)n(Cc2ccccc2)c(=O)[nH]c1=O	21%
COc1ccc(C(=O)N2CCC(C(=O)Nc3ccccc3OC)CC2)cc1	-34.6%
COc1ccc(NC(=O)NS(=O)(=O)c2ccc(C)cc2)c(OC)c1	10.6%
O=C(NCCC1=CCCCC1)C1CCN(c2nnc(-n3cccc3)s2)CC1	-24.7%
CC1CCN(CC(O)COC2CC(C)CCC2C(C)C)CC1.Cl (stereo not drawn)	-70.4%
CCOc1ccc(NS(=O)(=O)c2ccc(C)c(C(N)=O)c2)cc1	21.5%
Cc1nnc2ccc(-c3cccc(C(F)(F)F)c3)nn12	-9.04%
CCOc1ccc([N+](=O)[O-])cc1CNC1CCCCCCC1.Cl	-14.9%
Brc1cc2c(cc1/C=N/Nc1nc3ccccc3s1)OCO2	2.59%
Nc1nnc(SCC(=O)OCC(=O)NC23CC4CC(CC(C4)C2)C3)s1	15.2%
CC(=O)Nc1ccc2c(c1)OCCOCCOc1cc(NC(C)=O)ccc1OCCO2	-4.52%
Cc1cccc(C(=O)OCC(=O)Nc2nnc(-c3ccccc3)o2)c1O	-6.16%
COC(=O)c1ccccc1NC(=O)CSc1nnc(C(C)NC(=O)c2ccc(Cl)cc2Cl)n1C (stereo not drawn)	-45.3%
CCc1nnc(SCC(=O)NC2CC2)n1CC	23.7%
Cn1nnnc1SCC(=O)Nc1ccc2c(c1)OCO2	11.8%
CN(C)CCN1CC(C(=O)O)CC1=O (stereo not drawn)	13.3%
Cc1nc(CS(=O)(=O)c2ccccc2)cc(N2CCN(c3ccccc3F)CC2)n1	3.43%
O=C(Cc1ccc(Br)cc1)N/N=C/c1cccnc1	-30.9%

Source: article PMC4336329 (PLoS ONE, 2015)
